Variants at the floor of the assay are shown more often than the library holds them.
B1: TPR 5TU (parent)
chain: GGAUCUUCUCGAUCUAACAAAAAAGACAAAUCUGCCACAAAGCUUGAGAGCAUCUUCGGAUGCAGAGGCGGCAGCCUUCGGUGGCGCGAUAGCGCCAACGUUCUCAACUAUGACACGCAAAACGCGUGCUCCGUUGAAUGGAGUUUAUCAUG

Variants of: B1
Assay: polymerase ribozyme fitness, log enrichment relative to wild type (log ratio); higher = more active; in vitro selection for triplet polymerase activity
Procedure, shortened: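 Mutant libraries were PCR-built and transcribed for each subunit of a heterodimeric triplet polymerase ribozyme and selected for one round in triplicate at −7 °C, frozen, before gel excision of extended constructs and streptavidin-bead capture. Input and output libraries were Illumina-sequenced, keeping genotypes with ≥10 input reads and ≥1 read per output. Fitness is a logarithmic ratio of genotype to wild-type enrichment, in base 2, using inverse-variance-weighted replicate averages.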

GGAUCUUCUCGAUCUAACAAAAAAGACAAAUCUGCCACAAAGCUUGAGUGCAUCUUCGGAUGCAGAGGCGGCUGCCUUCGGUGGCGUGAUAGCGCCAACGUUCUCAACUAUGACACGCAAAACGCGUGCUCCGUUGAAUGGAGUUUAUCAUG and GGAUCUUCUCGAUCUAACAAAAAAGACAAAUCUGCCACAAAGCUUGAGUGCAUGUUCGGAUGCAGAGGCGGAAGCCUUCGGGGGCGCGAUAGCGCCAACGUUCUCAACUUUGACACGCAAAACGCGUGCUCCGUUGAAUGGAGUUUAUCAUG cannot be ordered by “polymerase ribozyme fitness (log ratio)” value: ≤ -4.2 for the first, ≤ -4.2 for the second.

First: GGAUCUUCUCGAUCUAACAAAAAAGACAAAUCUGCCACAAAGCUUGAGUGCAUCUUCGGAUGCAGAGGCGGCAGCCUUCGGUGGCGCGAUAGCGCAAACGUUCUCAACUAUGACACGCAAAACGCGUGCUCCGUUGAAUGGAGUUUAUCAUG
Second: GGAUCUUCUCGAUCUAACAAAAAAGACAAAUCUGCCACAAAGCUUGAGUGCAUUUUCGGAUGCAGAGGCGGCAGCCUUCGGUGGCGCCAAAGCGCCAACGUUCUCAACUAUGAUACGCAAAACGCGUGCUCCGUUGAAUGGCGUUUAUCAUG
The “polymerase ribozyme fitness (log ratio)” value of the first is higher: -3.45 for the first, ≤ -4.2 for the second.

Going from GGAUCUUCUCGAUCUAACAAAAAAGACAAAUCUGCCACAAAGCUUGAGUGCAUCUUCGGAUGCAGAGGCGGCAGCCUUCGGUGGCGCGAUAGCGCCAACGUUCUCACCUAUGACACGCAAAACGCGUGCUCCGUUGAAUGGAGUUUAUCAUG to GGAUCUUCUCGAUCUAACAAAAAAGACAAAUCUGCCACAAAGCUUGAGUGAAUCGUCGGAUGCAGAGGCGGCAGCCUUCGGUGGCGCGAUAGCGACAACGUUCUCAACUAUGACACGCAAAACGCGUGCUCCGUUGAAUGGAGUUUAUCAUG, the “polymerase ribozyme fitness (log ratio)” value rises from ≤ -4.2 to -2.79.

Compared with GGAUCUUCUCGAUCUAACAAAAAAGACAAAUCUGCCACAAAGCUUGAGUGCAUCUUCGGAUGCAGAGGCGGCAGCCUUCGGUGGCGCGAUAGCGCCAACGUUCUCAACUAUGACACGCAAAACGCGUGCUCCGUUGAAUGGCGUUUAUCAUG, GGAUCUUCUCGAUCUAACAAAAAAGACAAAUCUGCCACAAAGCUUGAGUGCAUCUUCGGAUGCCGAGGCGGCAGUCUUCGGUGGCGCGAUGGCGCCAACGUUCUCAACUAUGACACGCAAUACGCGUGCUCCGUUGAAUGGAGUUUAUCAUG is lower in “polymerase ribozyme fitness (log ratio)” value: -1.43 for the first, ≤ -4.2 for the second.

GGAUCUUCUCGAUCUAACAAAAAAGACAAAUCUGCCACAAAGCUUGAGUGCAUCUUCGGAUGCAGAGGUGGCAGCCUUCGGUGGCGCGAUAGCGCCAACGUUCUCAACUAUGACACGCAAAACGCGUGCUCCGUUGAAUGGAGUUUACCAUG and GGAUCUUCUCGAUCUAACAAAAAAGACAAAUCUGCCACAAAGCUUGAGUGCAUCUUCGGAUGCAGAGGCGGCAGCCUUCGGUGGCGCGAUAGCGCCAAGGUUCUCAAGUAUGACACGCAAAACGCGUGCUCCGUUGAAUGGAGUUUAUCAUG cannot be ordered by “polymerase ribozyme fitness (log ratio)” value: ≤ -4.2 for the first, ≤ -4.2 for the second.

GGAUCUUCUCGAUCUAACAAAAAAGACAAAUCUGCCACAAAGCUUGAGUGCAUCUUCGGAUGCAGAGGCGGUAGCCUUCGGUGGCGCGAUGGCGCCAACGGUCUCAACCAUGACACGCAAAACGCGUGCUCCGUGGAAUGGAGUUUAUCUUG and GGAUCUUCUCGAUCUAACAAAAAAGACAAAUCUGCCACAAAGCUUGAGUGCAUCUUCGGGAGCAGAGGCGGCAGCCUUCGGUGGCGCGAUAGGGCCAACGUUCUCAACUAUGACACGCAAAACGCGUGCUCCGUUGAAUGGAGUUUAUCAUG cannot be ordered by “polymerase ribozyme fitness (log ratio)” value: ≤ -4.2 for the first, ≤ -4.2 for the second.

Compared with GGAUCUUCUCGAUCUAACAAAAAAGACAAAUCUGCCACAAAGCUUGAGUGCAUCUUCGGAUGCAGAGGCGGCAGCCUUCGGUGGCGCGAUAGCGCCAACGUUCUCAACUAUGACACGCAAAACGCGUGCUCCGUUGAAUGGAGUUUAUCUUG, GGAUCUUCUCGAUCUAACAAAAAAGACAAAUCUGCCACAAAGCUUGAGUGAAUCUUCCGAUGCAGAGGCGGCAGCCUUCGGUGGCGCUAUAGCGGCAACGUUCUCAGCUAUGACACGCAAAACACGUGCUCCGUUGAAUGGAGUUUAUCAUG is lower in “polymerase ribozyme fitness (log ratio)” value: -0.0151 for the first, ≤ -4.2 for the second.

GGAUCUUCUCGAUCUAACAAAAAAGACAAAUCUGCCACAAAGCUUGAGUGCAUCUUCGGAUGCAGAGGCGGCAGCCUUCGGUGGCGCGAUGGCGCCAACGUUCUCAACUAUGACACGCAAAACGCGUGCUCCGUUGAAUGGAGUUUAUCAUG and GGAUCUUCUCGAUCUAACAAAAAAGACAAAUCUGCCACAAAGCUUGAGUGCAUCUUCGGUUGCAGAGGCGGCAGGCUUCGGUGUCGCGAUAGCGCCAACGUUCUCAACUAUGACACGCAAAACGCGUGCUCCGUUGAAUGGAGUUUGUGAUG cannot be ordered by “polymerase ribozyme fitness (log ratio)” value: ≤ -4.2 for the first, ≤ -4.2 for the second.

GGAUCUUCUCGAUCUAACAAAAAAGACAAAUCUGCCACAAAGCUUGAGUGCGUCUUCGGAUGCAGAGGCGGCAGCCUUCGGUGGCGCGAUAGCGCUAAGGUUCUCAACUAUGACACGCAAAACGCGUGCUCCGUUGAAUGGAGUUUAUCAUG and GGAUCUUCUCGAUCUAACAAAAAAGACAAAUCUGCCACAAAGCUUGAGUGCAUUUUCGGAUGCAGAGGCGGCAGCCUUCGGUGGCGCAAUAGCGCUAACGUUCUCAACUAUGACACGCAAAACGCGUGCUCCGUUGAAUGAAGUUUAUUAUG cannot be ordered by “polymerase ribozyme fitness (log ratio)” value: ≤ -4.2 for the first, ≤ -4.2 for the second.

For GGAUCUUCUCGAUCUAACAAAAAAGACAAAUCUGCCACAAAGCUUGAGUGCAUCUUCGGAUGCAGAGGCGGCAGCCUUCGGUGGCGCGAUAGCGCCAACGUUCUCAAUUAUGACACGCAAAACGCGUGCUCCGUUGAAUGGAGUUUAUCAUG, the “polymerase ribozyme fitness (log ratio)” value was ≤ -4.2.

— the RNAGym collection of RNA variant scans (doi:10.1073/pnas.2313332121)
